# Changes are numbered by the printed parent chain. The list shows a part of the results.
# T1: UNK ZnF1-3 (human, UniProt Q9C0B0 31-174)
# T1 sequence: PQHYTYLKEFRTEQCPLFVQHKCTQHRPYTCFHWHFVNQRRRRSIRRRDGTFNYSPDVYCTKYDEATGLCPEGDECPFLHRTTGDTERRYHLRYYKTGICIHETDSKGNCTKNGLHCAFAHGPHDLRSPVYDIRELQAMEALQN
# B1: chr20:57484439:57484440:+_ENSG00000087460_ENST00000306090|hu_hu|FALSE|FALSE (ssRNA)
# RNA: GGGAGUUCUACAGUCCGACGAUCGCCACCCACGUCAAACAUGUGGAAGUUGACUUUGUCCACCUGGAACUUGGUCUCAAAGAUUCCAGAAGUCAGGACACGGCAGCGAAGCAGGUCCUGAUCGCUCGGCACAUAGUCAGCCUGCAACAGAGGAUUGAGCAUCA
# B2: chr13:77595817:77595818:-_ENSG00000005812_ENST00000355619|hu_mus|FALSE|FALSE (ssRNA)
# RNA: GGGAGUUCUACAGUCCGACGAUCACAUCGCCACAAGUCAGGCAUGUGAAAUACCUGAUUCCAAUUCCGGCACACUUGGGAAGCAUGAGCCCGGUCAAGAAGAGGCAAAUACUUAAAAACAUGGAGGACGAUGUCCUGCAGGAGCAACAGAGGAUUGAGCAUCA
# B3: chr6:50805741:50805742:+_ENSG00000008196_ENST00000393655|hu_mus|FALSE|FALSE (ssRNA)
# RNA: GGGAGUUCUACAGUCCGACGAUCCAGUGAGGUGAGUAACGUGACAUUUGCUGCUUUGCGCCUGCCCGCGGGUAAAUUCAAACCGAUUUUUUCUAGCCUUUCUCUCAAGGAUCUCCCCCCAUUUUUCGAUUUGGCUCUUCUGAGCAACAGAGGAUUGAGCAUCA
# B4: chr7:135832278:135832279:+_ENSMUSG00000042105_ENSMUST00000118605|mus_hu|motif|central (ssRNA)
# RNA: GGGAGUUCUACAGUCCGACGAUCAAGCUGCUCUAUUCGUUUUUGUUUUCCCGCCACUGGGGCAAGCCCUCCUUCCACACGGUGAAGACGAAAAUUGCCAGCACCACAUGAAGCCCGACCACUGCAACAAUGGUCGCAUAAAAGCAACAGAGGAUUGAGCAUCA
# B5: chr8:110352747:110352748:+_ENSG00000120533_ENST00000521662|hu_hu|motif|central (ssRNA)
# RNA: GGGAGUUCUACAGUCCGACGAUCCAGGGCUCUGCCUUUUGGAGUGAUUUCAGCCACCAAGUCAUCAACAGUAACGUGUUCGGGUCCUUUUUCUUUAAUUACCUCUUUACAGUGUGCCUUCAACUGAUCCUUCCAGCCACAUUCCAACAGAGGAUUGAGCAUCA
# B6: chr4:148551591:148551592:-_ENSMUSG00000063077_ENSMUST00000060537|mus_hu|mus_mus_mus_hu_False|48_108 (ssRNA)
# RNA: GGGAGUUCUACAGUCCGACGAUCACCUUACAAAAUUAAAUAUCCCUGUAAAUUAGACAAUAAGCAGCAGGCAACAAAGUCUUUGCUUUGAAAUAUGUGCCAGGAAAAGUCAUCUUGUUUUUAGAUCUCAAGAGACAGUUCACACAACAGAGGAUUGAGCAUCA
# B7: chr12:67691335:67691336:+_ENSG00000111530_ENST00000540319|hu_hu|motif|central (ssRNA)
# RNA: GGGAGUUCUACAGUCCGACGAUCCAUAGAAUCAUUUUUGGACAACUCUGACAACAGAUGUUCAAUAAGAUCUACAAAAACGGUAUUUCCACAGCUCAUAACCAGAUGGCCAAGAGCGAUAAUGGUUCUUUUCCUCACUGCAAGCAACAGAGGAUUGAGCAUCA
# B8: chr8:95500983:95500984:-_ENSG00000164944_ENST00000437199|hu_hu|hu_hu_hu_mus_True|1_88 (ssRNA)
# RNA: GGGAGUUCUACAGUCCGACGAUCAGAACACAUCUAUCGAGUAAAGGGAGCGUACAUACGGCCUCUACCACUGCCUCCACUAACAAACUUUCCUCUCGAGCCUCCACUGCCGCUAUUUGUACUAGCCCAGGACGGUCCCAAGUCCAACAGAGGAUUGAGCAUCA
# B9: chr9:95013113:95013114:-_ENSG00000196305_ENST00000443024|hu_hu|hu_hu_hu_mus_False|58_68 (ssRNA)
# RNA: GGGAGUUCUACAGUCCGACGAUCCUCAGUCAGAAAGGGCGUGUAAGGGGCCAUCAGUCUGCACAGAGAAAGCAGAACACUAAACAAUGUCUCCAGAGCCAUGACACAGUCUUCCACCCCACUCUCACCCUUUAACCUCCUCCUCAACAGAGGAUUGAGCAUCA
# B10: chr7:54825262:54825263:-_ENSG00000132432_ENST00000352861|hu_hu|hu_hu_hu_mus_False|28_108 (ssRNA)
# RNA: GGGAGUUCUACAGUCCGACGAUCCUGACUUGGCUCAUCCACAAACUGCAUUACCUGAUCCAUGUUUGUUGGAUGGCGGAUUGAGAGCGUAGAGACACGUAGCUCAGGGAGCUUGCUAGCCCAACGGAACCGGAAGCUGGCAACCAACAGAGGAUUGAGCAUCA
# B11: chr2:86371542:86371543:-_ENSG00000132305_ENST00000449247|hu_mus|FALSE|FALSE (ssRNA)
# RNA: GGGAGUUCUACAGUCCGACGAUCCCAGUCCUGUGCCACUCUUCUGGACUCCCCUUUGAGCUGAUUGACAAACUUUGCUGCCAGCUCCAGGUCACCAUGCUCAAUACAAUAGGAGGCAUAUGAGAGCAAUUUAAAUGUAUUUAUCAACAGAGGAUUGAGCAUCA
# B12: chr1:163117127:163117128:-_ENSG00000143248_ENST00000313961|hu_mus|hu_hu_hu_mus_False|18_68 (ssRNA)
# RNA: GGGAGUUCUACAGUCCGACGAUCUGCUACAAAGGAUGUAACUCAACUCACAGGGCAACUUUUGGAAGCCUGGCUAAAUGACUACUUGAUUAGCUCCUUAUAAAAUUCAGAGCGCACAAAGCGAGGCAGAGAAUCCUUCUCCAUCAACAGAGGAUUGAGCAUCA
# B13: 86293490_86294785_1199_CDS_ENSG00000135018_ENST00000376395|human|control|control (ssRNA)
# RNA: GGGAGUUCUACAGUCCGACGAUCUGGAUUCCUGGCAAGUUCCAACGUUUGUCUCAUUAUAUCUGGAUUAUUCAACAUAUGACUAAUUUCUGGAUUUCUCUGUAUCAACUGCUGCAUUUGUGGAUUGGCCAUAAUUAACUGUCUCAACAGAGGAUUGAGCAUCA
# B14: chr17:62496873:62496874:-_ENSG00000108654_ENST00000581693|hu_mus|FALSE|FALSE (ssRNA)
# RNA: GGGAGUUCUACAGUCCGACGAUCUCCAAUUCGAUGAAUAUAAUCCUCUGAGGAGUUAGGGUAGUCAUAAUUGAUGACAAAUUUCACAUCUUCCACAUCUAGCCCUCUGGAGGCCACAUCGGUAGCAAUCAGAAUAGGAGCUUUCAACAGAGGAUUGAGCAUCA
# B15: chr2:42509997:42509998:+_ENSG00000143924_ENST00000318522|hu_mus|hu_hu_hu_mus_True|58_108 (ssRNA)
# RNA: GGGAGUUCUACAGUCCGACGAUCUCGCUGAGUUCUCUCCUCAUAAUUAAACAGGACUACCACUGAGGCGAUAAAAUAAACUAUUUUCCCUGUGGGAAGCAGGUAUACAUUCGCUCUACAGUCCUUUCCUCGAUAACCGUAUACCAACAGAGGAUUGAGCAUCA
# B16: chr12:16048344:16048345:+_ENSG00000023734_ENST00000419869|hu_hu|hu_hu_hu_mus_True|1_8 (ssRNA)
# RNA: GGGAGUUCUACAGUCCGACGAUCAGAUCGUCCAUAAGUAAUAACCAAAAUCUCUCCUUCAGGAAUAUACUCCAUGCUGCUAACAGACAUAUUAAAAUUCAGAGAUUUCACUUCUGUCAUUGUGGCAUGAUCCCAAAGUCGAACCAACAGAGGAUUGAGCAUCA
# B17: 55348197_55348317_2729_3pUTR_ENSMUSG00000021488_ENSMUST00000099490|mouse|control|control (ssRNA)
# RNA: GGGAGUUCUACAGUCCGACGAUCGAAGCAGAAGAAAACAGUAAUGGCUUUGAUGCCUUUGCCGUUCCAGAAUCACUUACGUCUUCACUUAAUGAUCUGUACGAGAGCUCCUUCAGUUCCGAAAGAACGUGCUUCACCACUGCUCAACAGAGGAUUGAGCAUCA
# B18: chr13:95058138:95058139:+_ENSG00000183098_ENST00000377047|hu_mus|motif|central (ssRNA)
# RNA: GGGAGUUCUACAGUCCGACGAUCAUUAAACCUUUAACAUUAAAUCAGUCUACAAAACCAUACAACGGGCAGUGACAAUGACGGGGAAGGGCACGUUAAAAACAUUUUGUCCAUGUCUGUGUAAGAUGACCAACGAUGUGGCUUCAACAGAGGAUUGAGCAUCA
# B19: chr8:95500983:95500984:-_ENSG00000164944_ENST00000437199|hu_hu|hu_hu_hu_mus_True|88_98 (ssRNA)
# RNA: B8 RNA with C37U, G38C, A39G, G40U, U41G, A42U, G45A, A140G, U142C
# B20: 144934483_144934603_1449_3pUTR_ENSMUSG00000038970_ENSMUST00000041804|mouse|control|control (ssRNA)
# RNA: GGGAGUUCUACAGUCCGACGAUCUGCUGUUCAAAGUCGACCUCCGAGUCCCGCUGGCUCUGCAUCCUCAGGUAAGUUAGCAGACGGUGCACGUCUUCUGCGGCUGGCCUCUUGUCAGGAGGCAGCCAGCAGAACUGCAGCACUCAACAGAGGAUUGAGCAUCA
# B21: chrX:20248820:20248821:+_ENSMUSG00000001924_ENSMUST00000001989|mus_mus|mus_mus_mus_hu_True|98_108 (ssRNA)
# RNA: GGGAGUUCUACAGUCCGACGAUCGGCAAAGUCAGUCAUCACAAAGUCAGGUUCUGCCAGUGAGGCCACCAAGGAUUUAAAGCUAAUCUUCUUAGGUACUUUGACCUGACUGACGAUGCCUCCACGGAUGUAGUCGGAGAAGUUCAACAGAGGAUUGAGCAUCA
# B22: chr5:174939138:174939139:+_ENSG00000164466_ENST00000321442|hu_hu|motif|central (ssRNA)
# RNA: GGGAGUUCUACAGUCCGACGAUCGCCAACUUUGAGUUCCCUUUGCCUCAUUAAUGGAAUAUUAAUGCAAUUAGCAGCAGCGGCGGCAGCAAAGGGAACAAAACGUCCUAUCAGUGGUGAGACAUGCUUGGUCAAUGCAUUGAGCAACAGAGGAUUGAGCAUCA
# Biological target: T1, UNK ZnF1-3
# Assay: nsRBNS (natural sequence RNA bind-n-seq); RBNS binding buffer (assumed for nsRBNS): 25 mM Tris pH 7.5, 150 mM KCl, 3 mM MgCl2, 0.01% Triton X-100, 500 ug/ml BSA, 20 U/ml SUPERase-In, 4 C; UNK is unkempt and MSI1 is Musashi-1; names of the RNAs are library labels; protein concentration not given here; high values mean tight binding
row,Binder,binding signal [enrichment R]
1,B1,0.902
2,B2,1.55
3,B3,1.01
4,B4,1.26
5,B5,0.74
6,B6,1.04
7,B7,0.807
8,B8,1.47
9,B9,1.61
10,B10,0.674
11,B11,1.27
12,B12,1.15
13,B13,0.779
14,B14,0.829
15,B15,1.53
16,B16,1.08
17,B17,0.552
18,B18,1.55
19,B19,1.14
20,B20,0.529
21,B21,0.819
22,B22,0.864

# Reference: paper PMC12136788
